# Laboratory results published in the supplement of paper PMC8728848.
# This is one part of the list.
# B1: DrGal3 (Danio rerio) (protein)
# chain: MDLSDALDAPPQQNNQQAGGPVWPGQPANPVWPGQPANPTWPGQPNQPAWPGQPNQQWPGQPGQPTAPGWPGPAPQTGPYGAPGQAPQVLTVPLDFPLQNGAYNKMLITINGEVKPNAKQFTVNLRRGNDIAFHINPRFSEGGKPVIVRNSMIGNNWGREERELPSFPFVPGKPFEMKILITDTEYKVAVNKSHLLEFKHRVFELNQITGLSIYNDVTLSTVNVETLQ
# What was measured:
# Experiment in all cases: glycan array binding signal (z-score within array); higher = stronger binding
# Settings in all cases: glycan notation: IUPAC condensed, linker removed
# [1] = target: Man(a1-2)Man(a1-3)[Man(a1-2)Man(a1-6)]Man
# In short: (§1)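 Columns mapping to the same glycan were averaged after glycan names were converted to IUPAC-condensed notation. The data come from 3228 arrays in the Consortium for Functional Glycomics database, limited to those with an available protein sequence. Binding is reported as a within-array Z-score averaged across arrays of one protein sequence and across linkers.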
# [2] = target: Man(a1-2)Man(a1-3)[Man(a1-2)Man(a1-6)]Man(a1-6)[Man(a1-2)Man(a1-2)Man(a1-3)]Man
# In short: as §1
# [3] = target: Man(a1-2)Man(a1-3)[Man(a1-2)Man(a1-6)]Man(a1-6)[Man(a1-2)Man(a1-2)Man(a1-3)]Man(b1-4)GlcNAc(b1-4)GlcNAc
# In short: as §1
# [4] = target: Man(a1-2)Man(a1-3)[Man(a1-6)]Man(a1-6)[Man(a1-2)Man(a1-3)]Man(b1-4)GlcNAc(b1-4)GlcNAc
# In short: as §1
# [5] = target: Man(a1-2)Man(a1-6)[Man(a1-3)]Man(a1-6)[Man(a1-2)Man(a1-2)Man(a1-3)]Man
# In short: as §1
# [6] = target: Man(a1-2)Man(a1-6)[Man(a1-3)]Man(a1-6)[Man(a1-2)Man(a1-2)Man(a1-3)]Man(b1-4)GlcNAc(b1-4)GlcNAc
# In short: as §1
# [7] = target: Man(a1-3)[Man(a1-6)]Man
# In short: as §1
# [8] = target: Man(a1-3)[Man(a1-6)]Man(a1-6)[Man(a1-2)Man(a1-3)]Man(b1-4)GlcNAc(b1-4)GlcNAc
# In short: as §1
# [9] = target: Man(a1-3)[Man(a1-6)]Man(a1-6)[Man(a1-3)]Man
# In short: as §1
# [10] = target: Man(a1-3)[Man(a1-6)]Man(a1-6)[Man(a1-3)]Man(b1-4)GlcNAc(b1-4)GlcNAc
# In short: as §1
# [11] = target: Man(a1-3)[Man(a1-6)]Man(b1-4)GlcNAc(b1-4)GlcNAc
# In short: as §1
# [12] = target: Man(a1-3)[Man(a1-6)]Man(b1-4)GlcNAc(b1-4)[Fuc(a1-6)]GlcNAc
# In short: as §1
# [13] = target: Man(a1-6)Man
# In short: as §1
# [14] = target: Man(b1-4)GlcNAc
# In short: as §1
# [15] = target: MurNAc(b1-4)GlcNAc
# In short: as §1
# [16] = target: Neu5Ac(a2-3)Gal
# In short: as §1
# [17] = target: Neu5Ac(a2-3)Gal(b1-3)GalNAc
# In short: as §1
# [18] = target: Neu5Ac(a2-3)Gal(b1-3)GalNAc(b1-3)Gal(a1-4)Gal(b1-4)Glc
# In short: as §1
# [19] = target: Neu5Ac(a2-3)Gal(b1-3)GalNAc(b1-4)Gal(b1-4)Glc
# In short: as §1
# [20] = target: Neu5Ac(a2-3)Gal(b1-3)GalNAc(b1-4)[Neu5Ac(a2-3)]Gal(b1-4)Glc
# In short: as §1
# [21] = target: Neu5Ac(a2-3)Gal(b1-3)GalNAc(b1-4)[Neu5Ac(a2-8)Neu5Ac(a2-3)]Gal(b1-4)Glc
# In short: as §1
# [22] = target: Neu5Ac(a2-3)Gal(b1-3)GalNAc6S
# In short: as §1
# [23] = target: Neu5Ac(a2-3)Gal(b1-3)GlcNAc
# In short: as §1
# [24] = target: Neu5Ac(a2-3)Gal(b1-3)GlcNAc(b1-2)Man
# In short: as §1
# [25] = target: Neu5Ac(a2-3)Gal(b1-3)GlcNAc(b1-2)Man(a1-3)[GlcNAc(b1-4)][Neu5Ac(a2-3)Gal(b1-3)GlcNAc(b1-2)Man(a1-6)]Man(b1-4)GlcNAc(b1-4)GlcNAc
# In short: as §1
# [26] = target: Neu5Ac(a2-3)Gal(b1-3)GlcNAc(b1-2)Man(a1-3)[Neu5Ac(a2-3)Gal(b1-3)GlcNAc(b1-2)Man(a1-6)]Man(b1-4)GlcNAc(b1-4)GlcNAc
# In short: as §1
# [27] = target: Neu5Ac(a2-3)Gal(b1-3)GlcNAc(b1-2)[Neu5Ac(a2-3)Gal(b1-3)GlcNAc(b1-4)]Man(a1-6)[Neu5Ac(a2-3)Gal(b1-3)GlcNAc(b1-2)Man(a1-3)]Man(b1-4)GlcNAc(b1-4)GlcNAc
# In short: as §1
# [28] = target: Neu5Ac(a2-3)Gal(b1-3)GlcNAc(b1-3)Gal(b1-3)GlcNAc
# In short: as §1
# [29] = target: Neu5Ac(a2-3)Gal(b1-3)GlcNAc(b1-3)Gal(b1-4)GlcNAc
# In short: as §1
# [30] = target: Neu5Ac(a2-3)Gal(b1-3)GlcNAc(b1-3)GalNAc
# In short: as §1
# [31] = target: Neu5Ac(a2-3)Gal(b1-3)GlcNAc(b1-4)Gal(b1-4)Glc
# In short: as §1
# [32] = target: Neu5Ac(a2-3)Gal(b1-3)GlcNAc(b1-6)GalNAc
# In short: as §1
# [33] = target: Neu5Ac(a2-3)Gal(b1-3)GlcNAc6S
# In short: as §1
# [34] = target: Neu5Ac(a2-3)Gal(b1-3)[Fuc(a1-4)]GlcNAc
# In short: as §1
# [35] = target: Neu5Ac(a2-3)Gal(b1-3)[Fuc(a1-4)]GlcNAc(b1-3)Gal(b1-3)[Fuc(a1-4)]GlcNAc
# In short: as §1
# [36] = target: Neu5Ac(a2-3)Gal(b1-3)[Fuc(a1-4)]GlcNAc(b1-3)Gal(b1-4)[Fuc(a1-3)]GlcNAc
# In short: as §1
# [37] = target: Neu5Ac(a2-3)Gal(b1-3)[GlcNAc(b1-6)]GalNAc
# In short: as §1
# [38] = target: Neu5Ac(a2-3)Gal(b1-3)[Neu5Ac(a2-6)]GalNAc
# In short: as §1
# [39] = target: Neu5Ac(a2-3)Gal(b1-3)[Neu5Ac(a2-6)]GlcNAc(b1-3)[Fuc(a1-3)[Gal(b1-4)]GlcNAc(b1-6)]Gal(b1-4)Glc
# In short: as §1
# [40] = target: Neu5Ac(a2-3)Gal(b1-3)]Neu5Ac(a2-3)Gal(b1-4)]GlcNAc
# In short: as §1
# [41] = target: Neu5Ac(a2-3)Gal(b1-4)Glc
# In short: as §1
# [42] = target: Neu5Ac(a2-3)Gal(b1-4)GlcNAc
# In short: as §1
# [43] = target: Neu5Ac(a2-3)Gal(b1-4)GlcNAc(b1-2)Man
# In short: as §1
# [44] = target: Neu5Ac(a2-3)Gal(b1-4)GlcNAc(b1-2)Man(a1-3)[GlcNAc(b1-4)][Neu5Ac(a2-3)Gal(b1-4)GlcNAc(b1-2)Man(a1-6)]Man(b1-4)GlcNAc(b1-4)GlcNAc
# In short: as §1
# [45] = target: Neu5Ac(a2-3)Gal(b1-4)GlcNAc(b1-2)Man(a1-3)[Neu5Ac(a2-3)Gal(b1-4)GlcNAc(b1-2)Man(a1-6)]Man(b1-4)GlcNAc(b1-4)GlcNAc
# In short: as §1
binder,measurement,setting,value
B1,glycan array binding signal (z-score),[1],-0.254
same,glycan array binding signal (z-score),[2],-0.252
same,glycan array binding signal (z-score),[3],-0.253
same,glycan array binding signal (z-score),[4],-0.249
same,glycan array binding signal (z-score),[5],-0.241
same,glycan array binding signal (z-score),[6],-0.191
same,glycan array binding signal (z-score),[7],-0.222
same,glycan array binding signal (z-score),[8],-0.182
same,glycan array binding signal (z-score),[9],-0.265
same,glycan array binding signal (z-score),[10],-0.265
same,glycan array binding signal (z-score),[11],-0.225
same,glycan array binding signal (z-score),[12],-0.239
same,glycan array binding signal (z-score),[13],-0.257
same,glycan array binding signal (z-score),[14],-0.176
same,glycan array binding signal (z-score),[15],-0.132
same,glycan array binding signal (z-score),[16],-0.229
same,glycan array binding signal (z-score),[17],-0.24
same,glycan array binding signal (z-score),[18],-0.259
same,glycan array binding signal (z-score),[19],-0.238
same,glycan array binding signal (z-score),[20],-0.246
same,glycan array binding signal (z-score),[21],-0.283
same,glycan array binding signal (z-score),[22],-0.266
same,glycan array binding signal (z-score),[23],-0.241
same,glycan array binding signal (z-score),[24],-0.256
same,glycan array binding signal (z-score),[25],-0.271
same,glycan array binding signal (z-score),[26],-0.226
same,glycan array binding signal (z-score),[27],-0.228
same,glycan array binding signal (z-score),[28],-0.282
same,glycan array binding signal (z-score),[29],-0.2
same,glycan array binding signal (z-score),[30],-0.28
same,glycan array binding signal (z-score),[31],-0.296
same,glycan array binding signal (z-score),[32],-0.284
same,glycan array binding signal (z-score),[33],-0.172
same,glycan array binding signal (z-score),[34],-0.238
same,glycan array binding signal (z-score),[35],-0.249
same,glycan array binding signal (z-score),[36],-0.268
same,glycan array binding signal (z-score),[37],-0.195
same,glycan array binding signal (z-score),[38],-0.239
same,glycan array binding signal (z-score),[39],-0.238
same,glycan array binding signal (z-score),[40],-0.161
same,glycan array binding signal (z-score),[41],-0.166
same,glycan array binding signal (z-score),[42],-0.251
same,glycan array binding signal (z-score),[43],-0.201
same,glycan array binding signal (z-score),[44],-0.266
same,glycan array binding signal (z-score),[45],-0.226
